The other results are listed elsewhere or left out.
Legend:
Experiment in all cases: glycan array binding signal (z-score within array); higher = stronger binding
Conditions in all cases: glycan notation: IUPAC condensed, linker removed
[1] = target: Man(a1-2)Man(a1-2)Man(a1-3)Man
In short: (§1)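 From the Consortium for Functional Glycomics database, 3228 arrays were curated, keeping only those whose protein sequence was available. Binding is given as a within-array Z-score averaged across arrays sharing a protein sequence and across linkers. Negative Z-scores can be read as non-binding.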

[2] = target: Man(a1-2)Man(a1-2)Man(a1-6)[Man(a1-3)]Man
In short: as §1

[3] = target: Man(a1-2)Man(a1-3)Man
In short: as §1

[4] = target: Man(a1-2)Man(a1-3)[Man(a1-2)Man(a1-6)]Man
In short: as §1

[5] = target: Man(a1-2)Man(a1-3)[Man(a1-2)Man(a1-6)]Man(a1-6)[Man(a1-2)Man(a1-2)Man(a1-3)]Man(b1-4)GlcNAc(b1-4)GlcNAc
In short: as §1

[6] = target: Man(a1-2)Man(a1-3)[Man(a1-6)]Man(a1-6)[Man(a1-2)Man(a1-3)]Man(b1-4)GlcNAc(b1-4)GlcNAc
In short: as §1

[7] = target: Man(a1-2)Man(a1-6)[Man(a1-3)]Man(a1-6)[Man(a1-2)Man(a1-2)Man(a1-3)]Man(b1-4)GlcNAc(b1-4)GlcNAc
In short: as §1

[8] = target: Man(a1-3)[Man(a1-6)]Man
In short: as §1

[9] = target: Man(a1-3)[Man(a1-6)]Man(a1-6)[Man(a1-2)Man(a1-3)]Man(b1-4)GlcNAc(b1-4)GlcNAc
In short: as §1

[10] = target: Man(a1-3)[Man(a1-6)]Man(a1-6)[Man(a1-3)]Man(b1-4)GlcNAc(b1-4)GlcNAc
In short: as §1

[11] = target: Man(a1-3)[Man(a1-6)]Man(b1-4)GlcNAc(b1-4)GlcNAc
In short: as §1

[12] = target: Man(b1-4)GlcNAc
In short: as §1

[13] = target: Neu5Ac(a2-3)Gal
In short: as §1

[14] = target: Neu5Ac(a2-3)Gal(b1-3)GalNAc
In short: as §1

[15] = target: Neu5Ac(a2-3)Gal(b1-3)GalNAc(b1-3)Gal(a1-4)Gal(b1-4)Glc
In short: as §1

[16] = target: Neu5Ac(a2-3)Gal(b1-3)GalNAc(b1-3)Gal(b1-4)GlcNAc
In short: as §1

[17] = target: Neu5Ac(a2-3)Gal(b1-3)GalNAc(b1-4)[Neu5Ac(a2-3)]Gal(b1-4)Glc
In short: as §1

[18] = target: Neu5Ac(a2-3)Gal(b1-3)GalNAc6S
In short: as §1

[19] = target: Neu5Ac(a2-3)Gal(b1-3)GlcNAc
In short: as §1

[20] = target: Neu5Ac(a2-3)Gal(b1-3)GlcNAc6S
In short: as §1

[21] = target: Neu5Ac(a2-3)Gal(b1-3)[Fuc(a1-4)]GlcNAc
In short: as §1

[22] = target: Neu5Ac(a2-3)Gal(b1-3)[Fuc(a1-4)]GlcNAc(b1-3)Gal(b1-4)[Fuc(a1-3)]GlcNAc
In short: as §1

[23] = target: Neu5Ac(a2-3)Gal(b1-3)[Neu5Ac(a2-3)Gal(b1-4)]GlcNAc
In short: as §1

[24] = target: Neu5Ac(a2-3)Gal(b1-3)[Neu5Ac(a2-6)]GalNAc
In short: as §1

[25] = target: Neu5Ac(a2-3)Gal(b1-4)Glc
In short: as §1

[26] = target: Neu5Ac(a2-3)Gal(b1-4)GlcNAc
In short: as §1

[27] = target: Neu5Ac(a2-3)Gal(b1-4)GlcNAc(b1-2)Man(a1-3)[Neu5Ac(a2-3)Gal(b1-4)GlcNAc(b1-2)Man(a1-6)]Man(b1-4)GlcNAc(b1-4)GlcNAc
In short: as §1

[28] = target: Neu5Ac(a2-3)Gal(b1-4)GlcNAc(b1-3)Gal(b1-4)GlcNAc
In short: as §1

[29] = target: Neu5Ac(a2-3)Gal(b1-4)GlcNAc(b1-3)Gal(b1-4)GlcNAc(b1-3)Gal(b1-4)GlcNAc
In short: as §1

[30] = target: Neu5Ac(a2-3)Gal(b1-4)GlcNAc(b1-3)Gal(b1-4)[Fuc(a1-3)]GlcNAc
In short: as §1

[31] = target: Neu5Ac(a2-3)Gal(b1-4)GlcNAc6S
In short: as §1

[32] = target: Neu5Ac(a2-3)Gal(b1-4)[Fuc(a1-3)]GlcNAc
In short: as §1

[33] = target: Neu5Ac(a2-3)Gal(b1-4)[Fuc(a1-3)]GlcNAc(b1-3)Gal
In short: as §1

[34] = target: Neu5Ac(a2-3)Gal(b1-4)[Fuc(a1-3)]GlcNAc(b1-3)Gal(b1-4)GlcNAc
In short: as §1

[35] = target: Neu5Ac(a2-3)Gal(b1-4)[Fuc(a1-3)]GlcNAc(b1-3)Gal(b1-4)[Fuc(a1-3)]GlcNAc(b1-3)Gal(b1-4)[Fuc(a1-3)]GlcNAc
In short: as §1

[36] = target: Neu5Ac(a2-3)Gal(b1-4)[Fuc(a1-3)]GlcNAc6S
In short: as §1

[37] = target: Neu5Ac(a2-3)Gal6S(b1-4)GlcNAc
In short: as §1

[38] = target: Neu5Ac(a2-3)Gal6S(b1-4)[Fuc(a1-3)]GlcNAc
In short: as §1

[39] = target: Neu5Ac(a2-3)GalNAc
In short: as §1

[40] = target: Neu5Ac(a2-3)GalNAc(b1-4)GlcNAc
In short: as §1

[41] = target: Neu5Ac(a2-3)[GalNAc(b1-4)]Gal(b1-4)Glc
In short: as §1

[42] = target: Neu5Ac(a2-3)[GalNAc(b1-4)]Gal(b1-4)GlcNAc
In short: as §1

[43] = target: Neu5Ac(a2-3)[Neu5Ac(a2-6)]GalNAc
In short: as §1

[44] = target: Neu5Ac(a2-6)Gal
In short: as §1

[45] = target: Neu5Ac(a2-6)Gal(b1-4)Glc
In short: as §1

[46] = target: Neu5Ac(a2-6)Gal(b1-4)GlcNAc
In short: as §1

[47] = target: Neu5Ac(a2-6)Gal(b1-4)GlcNAc(b1-3)Gal(b1-4)GlcNAc
In short: as §1

[48] = target: Neu5Ac(a2-6)Gal(b1-4)GlcNAc(b1-3)Gal(b1-4)[Fuc(a1-3)]GlcNAc(b1-3)Gal(b1-4)[Fuc(a1-3)]GlcNAc
In short: as §1

[49] = target: Neu5Ac(a2-6)Gal(b1-4)GlcNAc6S
In short: as §1

[50] = target: Neu5Ac(a2-6)GalNAc
In short: as §1

[51] = target: Neu5Ac(a2-6)GalNAc(b1-4)GlcNAc
In short: as §1

[52] = target: Neu5Ac(a2-8)Neu5Ac
In short: as §1

[53] = target: Neu5Ac(a2-8)Neu5Ac(a2-3)Gal(b1-4)Glc
In short: as §1

[54] = target: Neu5Ac(a2-8)Neu5Ac(a2-3)[GalNAc(b1-4)]Gal(b1-4)Glc
In short: as §1

[55] = target: Neu5Ac(a2-8)Neu5Ac(a2-8)Neu5Ac
In short: as §1

[56] = target: Neu5Ac(a2-8)Neu5Ac(a2-8)Neu5Ac(a2-3)Gal(b1-4)Glc
In short: as §1

[57] = target: Neu5Ac(a2-8)Neu5Ac(a2-8)Neu5Ac(a2-3)[GalNAc(b1-4)]Gal(b1-4)Glc
In short: as §1

[58] = target: Neu5Ac(a2-8)Neu5Ac(a2-8)Neu5Ac(a2-8)Neu5Ac(a2-3)[GalNAc(b1-4)]Gal(b1-4)Glc
In short: as §1

[59] = target: Neu5Ac(b1-6)GalNAc
In short: as §1

[60] = target: Neu5Ac(b2-6)Gal(b1-4)GlcNAc
In short: as §1

[61] = target: Neu5Ac9Ac(a2-6)Gal(b1-4)GlcNAc
In short: as §1

[62] = target: Neu5Gc(a2-3)Gal(b1-3)GlcNAc
In short: as §1

[63] = target: Neu5Gc(a2-3)Gal(b1-3)[Fuc(a1-4)]GlcNAc
In short: as §1

[64] = target: Neu5Gc(a2-3)Gal(b1-4)Glc
In short: as §1

[65] = target: Neu5Gc(a2-3)Gal(b1-4)GlcNAc
In short: as §1

[66] = target: Neu5Gc(a2-3)Gal(b1-4)[Fuc(a1-3)]GlcNAc
In short: as §1

[67] = target: Neu5Gc(a2-6)Gal(b1-4)GlcNAc
In short: as §1

[68] = target: Neu5Gc(a2-6)GalNAc
In short: as §1

B1: FaeGac (Escherichia coli) (protein)
chain: WMTGDFNGSVDIGGSITADDYRQKWEWKVGTGLNGFGNVLNDLTNGGTKLTITVTGNKPILLGRTKEAFATPVTGGVDGIPHIAFTDYEGASVVLRKPDGETNKNGLAYFVLPMKNAGGTKVGSVKVNASYAGVLGRGGVTSADGELLSLFADGLSSIFYGGLPRGSELSAGSAAAARTKLFGSLSRDDILGQIQRVNANVTSLVDVAGSYRENMEYTDGNVVSAAYALGIANGQTIEATFNQAVTTSTQWSAPLNVAITYY
glycan array binding signal (z-score) [1]: -0.088 | glycan array binding signal (z-score) [2]: 3.1 | glycan array binding signal (z-score) [3]: -0.607 | glycan array binding signal (z-score) [4]: 0.358 | glycan array binding signal (z-score) [5]: -0.36 | glycan array binding signal (z-score) [6]: 0.527 | glycan array binding signal (z-score) [7]: 0.752 | glycan array binding signal (z-score) [8]: -0.141 | glycan array binding signal (z-score) [9]: 1.42 | glycan array binding signal (z-score) [10]: 0.136 | glycan array binding signal (z-score) [11]: 0.303 | glycan array binding signal (z-score) [12]: -0.784 | glycan array binding signal (z-score) [13]: -0.855 | glycan array binding signal (z-score) [14]: -0.785 | glycan array binding signal (z-score) [15]: -0.317 | glycan array binding signal (z-score) [16]: 0.164 | glycan array binding signal (z-score) [17]: 0.693 | glycan array binding signal (z-score) [18]: 2.57 | glycan array binding signal (z-score) [19]: -0.167 | glycan array binding signal (z-score) [20]: -0.905 | glycan array binding signal (z-score) [21]: 0.445 | glycan array binding signal (z-score) [22]: -0.262 | glycan array binding signal (z-score) [23]: 0.212 | glycan array binding signal (z-score) [24]: -0.501 | glycan array binding signal (z-score) [25]: -0.81 | glycan array binding signal (z-score) [26]: -0.528 | glycan array binding signal (z-score) [27]: 0.674 | glycan array binding signal (z-score) [28]: 0.714 | glycan array binding signal (z-score) [29]: -0.615 | glycan array binding signal (z-score) [30]: -0.824 | glycan array binding signal (z-score) [31]: 2.73 | glycan array binding signal (z-score) [32]: 1.26 | glycan array binding signal (z-score) [33]: -0.443 | glycan array binding signal (z-score) [34]: 0.987 | glycan array binding signal (z-score) [35]: 0.687 | glycan array binding signal (z-score) [36]: 0.715 | glycan array binding signal (z-score) [37]: -0.782 | glycan array binding signal (z-score) [38]: 0.096 | glycan array binding signal (z-score) [39]: -0.327 | glycan array binding signal (z-score) [40]: -0.706 | glycan array binding signal (z-score) [41]: 1.31 | glycan array binding signal (z-score) [42]: -0.863 | glycan array binding signal (z-score) [43]: -0.407 | glycan array binding signal (z-score) [44]: -0.713 | glycan array binding signal (z-score) [45]: -0.378 | glycan array binding signal (z-score) [46]: 0.04 | glycan array binding signal (z-score) [47]: -0.875 | glycan array binding signal (z-score) [48]: 1.87 | glycan array binding signal (z-score) [49]: 0.045 | glycan array binding signal (z-score) [50]: 1.98 | glycan array binding signal (z-score) [51]: -0.438 | glycan array binding signal (z-score) [52]: 0.421 | glycan array binding signal (z-score) [53]: 0.612 | glycan array binding signal (z-score) [54]: -0.17 | glycan array binding signal (z-score) [55]: -0.757 | glycan array binding signal (z-score) [56]: -0.867 | glycan array binding signal (z-score) [57]: 0.111 | glycan array binding signal (z-score) [58]: 0.001 | glycan array binding signal (z-score) [59]: -0.047 | glycan array binding signal (z-score) [60]: -0.584 | glycan array binding signal (z-score) [61]: -0.815 | glycan array binding signal (z-score) [62]: -0.826 | glycan array binding signal (z-score) [63]: 0.009 | glycan array binding signal (z-score) [64]: -0.761 | glycan array binding signal (z-score) [65]: 0.173 | glycan array binding signal (z-score) [66]: -0.884 | glycan array binding signal (z-score) [67]: 0.117 | glycan array binding signal (z-score) [68]: 0.116
